The campaign covered roughly 310,000 compounds. About 14,000 (4.5%) showed an effect of 50% or more. The effect is printed as a negative number. The list shows a part of the results.

We go through 56 molecules from publication PMC4336329 (PLoS ONE, 2015).
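Note: peak tail current of the secondary pulse compared with the same well before compound.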

In the assay the target is human ether-à-go-go-related gene (hERG) potassium channel (human, UniProt Q12809). The experiment in a line: primary screen, population patch clamp on CHO cells stably expressing hERG.
human ether-à-go-go-related gene (hERG) potassium channel, sequence (Q12809 whole entry, looked up): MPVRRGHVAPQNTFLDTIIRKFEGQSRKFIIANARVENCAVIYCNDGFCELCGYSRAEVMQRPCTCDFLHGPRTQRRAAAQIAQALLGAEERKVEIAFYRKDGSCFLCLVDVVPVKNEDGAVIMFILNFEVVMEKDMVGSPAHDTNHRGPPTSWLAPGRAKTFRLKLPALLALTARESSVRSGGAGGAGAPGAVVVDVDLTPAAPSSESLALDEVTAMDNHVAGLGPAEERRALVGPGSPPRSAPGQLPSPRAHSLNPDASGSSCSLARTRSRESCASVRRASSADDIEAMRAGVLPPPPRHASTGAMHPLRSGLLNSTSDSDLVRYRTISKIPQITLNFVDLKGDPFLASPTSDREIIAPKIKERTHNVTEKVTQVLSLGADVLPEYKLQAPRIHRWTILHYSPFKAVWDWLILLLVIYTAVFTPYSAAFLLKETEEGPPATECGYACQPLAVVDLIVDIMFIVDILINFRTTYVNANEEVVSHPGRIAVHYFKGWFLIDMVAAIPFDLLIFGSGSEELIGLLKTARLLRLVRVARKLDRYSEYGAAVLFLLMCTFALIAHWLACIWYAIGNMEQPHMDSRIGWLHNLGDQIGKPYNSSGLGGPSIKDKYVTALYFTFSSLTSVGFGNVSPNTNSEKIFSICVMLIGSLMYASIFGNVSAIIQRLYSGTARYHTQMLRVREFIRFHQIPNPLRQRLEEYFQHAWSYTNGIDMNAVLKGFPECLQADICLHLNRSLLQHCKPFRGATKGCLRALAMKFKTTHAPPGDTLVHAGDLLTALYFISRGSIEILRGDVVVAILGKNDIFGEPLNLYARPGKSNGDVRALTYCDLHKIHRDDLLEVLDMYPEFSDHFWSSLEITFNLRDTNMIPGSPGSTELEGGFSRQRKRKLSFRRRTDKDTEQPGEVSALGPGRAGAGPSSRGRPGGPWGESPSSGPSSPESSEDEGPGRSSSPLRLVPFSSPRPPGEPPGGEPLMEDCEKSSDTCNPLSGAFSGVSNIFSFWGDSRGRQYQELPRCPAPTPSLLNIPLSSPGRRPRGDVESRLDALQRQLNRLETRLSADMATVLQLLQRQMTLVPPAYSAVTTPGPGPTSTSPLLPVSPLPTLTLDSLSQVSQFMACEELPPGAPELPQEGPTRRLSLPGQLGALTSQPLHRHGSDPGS
As for `CCOC(=O)CCC(=O)N1CCNC(=O)C1`, the “hERG current change (%, negative = inhibition) at 10uM” value is recorded as -1.43%.

Take `CCOC(=O)C1CCN(S(=O)(=O)c2ccc3c(c2)NC(=O)C(C)S3)CC1` (centres unmarked): the “hERG current change (%, negative = inhibition) at 10uM” value was found to be 4.7%.

On to `CC(=O)Nc1ccc(NC(=O)C(C)OC(=O)c2ccc(C)s2)cc1` (centres unmarked), for which the “hERG current change (%, negative = inhibition) at 10uM” value stood at 3.53%.

As to `Cc1nn(C)c(C)c1NC(=O)CCCSc1nc(-c2ccco2)cc(C(F)(F)F)n1`, the “hERG current change (%, negative = inhibition) at 10uM” value is -0.504%.

For `CC(C)c1ccc(/C=C(\NC(=O)c2ccccc2)C(=O)NCCCn2ccnc2)cc1`, the “hERG current change (%, negative = inhibition) at 10uM” value is -78.2%.

For the molecule `Cc1cc(/C=C/C(=O)O)c(C)n1-c1ccc(Cl)cc1`, the “hERG current change (%, negative = inhibition) at 10uM” value was 11.6%.

In the case of `CC(=O)c1nnn(-c2ccccc2C#N)c1C`, the “hERG current change (%, negative = inhibition) at 10uM” value stood at 8.41%.

With `O=C(c1cccs1)N(c1cccc(Cl)c1)C1C=CS(=O)(=O)C1` (centres unmarked), the “hERG current change (%, negative = inhibition) at 10uM” value is recorded as -6.14%.

In the case of `S=C(NCCc1ccccn1)Nc1ccc(Cl)cc1`, the “hERG current change (%, negative = inhibition) at 10uM” value is 8.01%.

In the case of `COC(=O)CN1C(c2cccc(Cl)c2)=Nc2ccc(Cl)cc2C1c1ccccc1` (centres unmarked), the “hERG current change (%, negative = inhibition) at 10uM” value was found to be 1.61%.

Take `O=C(Nc1c(-c2ccccc2)nc2ccccn12)c1cccc(F)c1`: the “hERG current change (%, negative = inhibition) at 10uM” value was 8.95%.

In the case of `COc1ccc(C(=O)OCC(=O)Nc2ccc(F)c(F)c2)cc1OC`, the “hERG current change (%, negative = inhibition) at 10uM” value was found to be 0.471%.

Turning to `CC1=C(c2ccccc2)C(=S)NC(C)(C)C1`, the “hERG current change (%, negative = inhibition) at 10uM” value is 1.56%.

Regarding `Cc1cc(Cl)c(OCCOCCN2CCNCC2)c(Cl)c1.O=C(O)C(=O)O`, the “hERG current change (%, negative = inhibition) at 10uM” value was -7.47%.

On to `COc1ccc(-n2cnnc2SCC(=O)Nc2cccnc2Cl)cc1`, for which the “hERG current change (%, negative = inhibition) at 10uM” value is recorded as -18.7%.

On to `CCC(C(=O)Nc1cc(C)on1)c1ccccc1` (centres unmarked), for which the “hERG current change (%, negative = inhibition) at 10uM” value is -1.18%.

In the case of `N#Cc1ccccc1OCC(=O)NC(=O)NCc1ccco1`, the “hERG current change (%, negative = inhibition) at 10uM” value turned out to be 7.21%.

For `CC(=O)N1N=C(c2ccc(C)o2)CC1c1ccc(Br)cc1` (centres unmarked), the “hERG current change (%, negative = inhibition) at 10uM” value was -6.45%.

For the molecule `COc1ccccc1N1CCN(C(=O)c2ccc(Cl)c(S(=O)(=O)N3CCCC3)c2)CC1`, the “hERG current change (%, negative = inhibition) at 10uM” value is recorded as -38%.

As to `CC(C)CNc1nc(N)c([N+](=O)[O-])c(N2CCCCCC2)n1`, the “hERG current change (%, negative = inhibition) at 10uM” value was -0.987%.

In the case of `Br.CC(C)CCC1CC(CSC(=N)N)OC1=O` (centres unmarked), the “hERG current change (%, negative = inhibition) at 10uM” value is -14%.

As to `CC(NC(=O)C1=CC=CN2CCS(=O)(=O)N=C12)c1ccc(Cl)cc1Cl` (centres unmarked), the “hERG current change (%, negative = inhibition) at 10uM” value is -57.9%.

In the case of `COc1ccc(Cc2nnc(NC(=O)c3c(-c4ccccc4)noc3C)s2)cc1OC`, the “hERG current change (%, negative = inhibition) at 10uM” value is given as -11.9%.

Regarding `CCN(CC)S(=O)(=O)c1ccc(NC(=O)c2ccc(Sc3nncn3C)c([N+](=O)[O-])c2)cc1`, the “hERG current change (%, negative = inhibition) at 10uM” value is given as -49.6%.

`CC(C)NC(=O)NC(=O)CSc1nnc(COc2ccccc2Cl)o1`: the “hERG current change (%, negative = inhibition) at 10uM” value was -14.6%.

For the molecule `CCc1ccc(NS(=O)(=O)c2cc3c(cc2C)n(C)c(=O)c(=O)n3C)cc1`, the “hERG current change (%, negative = inhibition) at 10uM” value was -15.5%.

`CN(N)c1nc(N2CCCC2)nc(N2CCCC2)n1`: the “hERG current change (%, negative = inhibition) at 10uM” value is on record as -16.6%.

Consider `CC1(C(=O)NC2CCCCCC2)CCC(=O)N1Cc1ccc2c(c1)OCO2` (centres unmarked), for which the “hERG current change (%, negative = inhibition) at 10uM” value was -9.41%.

On to `COc1cccc(CNC(=O)CCC2CCCN(C(=O)c3ccc(C)nc3)C2)c1` (centres unmarked), for which the “hERG current change (%, negative = inhibition) at 10uM” value is listed as 9.47%.

For `C=CCN(CC=C)C(=O)CN1C(=O)NC(c2ccccc2)(c2ccccc2)C1=O`, the “hERG current change (%, negative = inhibition) at 10uM” value is reported as -20.2%.

`O=C(NC(=S)NC1CCCCC1)c1ccccc1[N+](=O)[O-]`: the “hERG current change (%, negative = inhibition) at 10uM” value is recorded as 15.3%.

In the case of `O=C(CSc1nnc(Cn2c(=O)sc3ccccc32)n1CCc1ccccc1)N1CCCC1`, the “hERG current change (%, negative = inhibition) at 10uM” value is on record as -4.26%.

For `CCCOc1cccc(CN2CCCCC2c2cccnc2)c1.Cl` (centres unmarked), the “hERG current change (%, negative = inhibition) at 10uM” value is on record as -8.51%.

Consider `O=C(Nc1cccn(Cc2cccc(F)c2)c1=O)NC1CCCCC1`, for which the “hERG current change (%, negative = inhibition) at 10uM” value is -33.6%.

With `COc1ccccc1/C=C(\C#N)C(=O)c1cccn1C`, the “hERG current change (%, negative = inhibition) at 10uM” value was 5.95%.

As for `CN1CCN(C(c2cccc(C(F)(F)F)c2)c2nnnn2Cc2ccccc2)CC1` (centres unmarked), the “hERG current change (%, negative = inhibition) at 10uM” value was -23.8%.

Consider `Cc1ccccc1C(=O)NC1CCN(C(=O)N2CCOCC2)CC1`, for which the “hERG current change (%, negative = inhibition) at 10uM” value is listed as 15.5%.

Regarding `O=C(NCCc1nnc2ccccn12)c1cccs1`, the “hERG current change (%, negative = inhibition) at 10uM” value came to 4.04%.

Turning to `CCN(CC)S(=O)(=O)c1ccc(C)c(NCC(=O)Nc2ccc(C#N)c(Cl)c2)c1`, the “hERG current change (%, negative = inhibition) at 10uM” value is reported as -3.28%.

Take `CCn1c(SCC(=O)N2CCN(c3ccc(Cl)cc3)CC2)nc2ccccc2c1=O`: the “hERG current change (%, negative = inhibition) at 10uM” value is recorded as 8.79%.

As for `COc1cc(C(=O)Nc2nc3ccc(C)cc3s2)ccc1OCc1c(C)noc1C`, the “hERG current change (%, negative = inhibition) at 10uM” value is on record as -5.4%.

With `COc1cc(-c2cc(C(=O)NCc3ccco3)c3ccccc3n2)cc(OC)c1OC`, the “hERG current change (%, negative = inhibition) at 10uM” value is given as -18.7%.

On to `C#CCOCCOCCOCCNc1nc(N2CCN(C(=O)CCCCCCCCCCNC(=O)Cn3cc(C[C@@H](C)O)nn3)CC2)nc(N2CCN(C(=O)CCCCCCCCCCNC(=O)Cn3cc(C[C@@H](C)O)nn3)CC2)n1`, for which the “hERG current change (%, negative = inhibition) at 10uM” value is reported as 13.2%.

Consider `CC(C(=O)NCc1ccc(F)cc1)c1ccc([N+](=O)[O-])cc1` (centres unmarked), for which the “hERG current change (%, negative = inhibition) at 10uM” value is -39.4%.

`c1ccc2oc(-c3ccc(Nc4nc(N5CCCC5)nc(N5CCOCC5)n4)cc3)nc2c1`: the “hERG current change (%, negative = inhibition) at 10uM” value was 16.2%.

Turning to `COc1ccc(NC(=O)c2ccc(NS(=O)(=O)c3cccc4cccnc34)cc2)cc1`, the “hERG current change (%, negative = inhibition) at 10uM” value amounted to 7.19%.

Take `O=C(O)Cn1c(SCc2ccccc2)nc2ccccc21`: the “hERG current change (%, negative = inhibition) at 10uM” value is reported as -28.7%.

Consider `O=C(CSc1nc(Nc2ccccc2)nc(N2CCOCC2)n1)Nc1ccccc1Cl`, for which the “hERG current change (%, negative = inhibition) at 10uM” value was -15.8%.

Regarding `CCOC(=O)c1nnn(-c2nonc2N)c1CN(CC)c1ccccc1`, the “hERG current change (%, negative = inhibition) at 10uM” value is on record as -10.8%.

In the case of `CC(=O)c1c(C)nc2ccccn12`, the “hERG current change (%, negative = inhibition) at 10uM” value is -7.46%.

As for `CCc1ccc(-c2nc(CN3CCC(C(=O)NCc4ccccc4OC)CC3)c(C)o2)cc1`, the “hERG current change (%, negative = inhibition) at 10uM” value was -68.4%.

`O=C(O)COc1ccc2c(c1)CCCC2`: the “hERG current change (%, negative = inhibition) at 10uM” value was 12.6%.

Take `CC(=O)N1CCOc2ccc(S(=O)(=O)N3CCC(C(=O)Nc4ccc(F)cc4)CC3)cc21`: the “hERG current change (%, negative = inhibition) at 10uM” value is listed as -13.3%.

As to `CCN(CC)C(=O)C1=C(C)NC(=S)NC1c1cccs1` (centres unmarked), the “hERG current change (%, negative = inhibition) at 10uM” value is recorded as 11.8%.

As for `COc1ccc(CC(=O)NCC2CCCN(Cc3ccc(F)cc3F)C2)cc1` (centres unmarked), the “hERG current change (%, negative = inhibition) at 10uM” value is listed as -17.5%.

For the molecule `O=C(c1cc(=O)c2ccccc2o1)N1CCN(c2ccccc2)CC1`, the “hERG current change (%, negative = inhibition) at 10uM” value was 1.71%.
